Measurements from the supplement of paper PMC10126150.
Values marked as one replicate rest on one cluster of the flow cell; about a third of the high ones do not repeat.

Test system: ATP
Assay: switch fluorescence ratio, 500 uM ATP over buffer (Cy3 cluster intensity, sum of 5 cycles each) (fold (ratio)); higher = stronger signal-on switching upon ATP binding; sequences stand for … in TCGTCGGCAGCGTCAGATGTGTATAAGAGACAGTTTTTTTTTTTTTTTTTTTTTTTTT…TC
Conditions: aptamer strand: ATP DNA aptamer (quencher-CACCTGGGGGAGTATTGCGGAGGAAGG + anchor), 100 nM annealed; ATP concentration: 500 uM; one replicate
Outline: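 Imaging in selection buffer was followed by imaging after 15 min with 500 uM ATP at 22 °C, for Cy3-labelled switching-strand clusters annealed to 100 nM quencher-labelled ATP aptamer on a modified Illumina MiSeq flow-cell. Five of these buffer/ATP cycles ran, separated by NaOH stripping and re-annealing. The fluorescence ratio per cluster is summed target-cycle over summed buffer-cycle Cy3 intensity, averaged per switch-domain sequence; clusters outside 100-1000 RFU were removed.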
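Also: ATP exposure 15 min at 22 °C before imaging.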

Row | Sequence | switch fluorescence ratio
1 | GAGAGTAGC | 1.02
2 | AAGCCCACGA | 1.05
3 | GGTTTGTGGA | 1.01
4 | ATATGAATTA | 0.999
5 | ATCCCAAAAG | 1.02
6 | GTTATATAGC | 1
7 | TCCTCTACGC | 2.72
8 | CCCCGTCTGG | 0.975
9 | GCGTTTTTGA | 0.98
10 | ATCCTAAGTA | 0.979
11 | ATACTCATCA | 1.03
12 | TCTCAATGGG | 1.03
13 | AGTGATCTAA | 1.01
14 | CCGCAGTTA | 4.31
15 | TCTGAAAAGC | 0.977
16 | CTTTTCGAAA | 0.953
17 | TAGATTGG | 0.985
18 | AGCTGTCCGT | 0.991
19 | TCGCTGGGCT | 0.983
20 | CACTGTGGG | 1
21 | GCCCTTGGGT | 1.01
22 | GGGTCTGGGC | 1.02
23 | TTTCGTTCAC | 1.32

Row | Sequence | switch fluorescence ratio
24 | CTCTGGGGGG | 1.01
25 | AGAGTTTTAA | 1
26 | TGCGGGGTGT | 1.01
27 | TCTCATAGCT | 0.999
28 | GTTTTAGGAT | 1.03
29 | ATGCGTGGAC | 0.939
30 | TCTATCATGG | 0.951
31 | TACTGTAATA | 1.2
32 | GAACGTACCC | 1.67
33 | GGATTCGGCT | 1.08
34 | AAAAAAGAAC | 0.935
35 | AAAGGTGCTT | 1.05
36 | GCCAAGTCGG | 0.96
37 | ATATCAGTCT | 0.996
38 | TATCCCGCTC | 1.43
39 | TGTAGTGGGA | 1.06
40 | TGCAGATTAG | 1.1
41 | CCCGCCAGGG | 1.05
42 | TCGGGATTTG | 1
43 | TAGAATGCAG | 0.967
44 | CCAACCCGAA | 1.71
45 | CACCGCGTAA | 3.75
46 | TCGGGACTTA | 1.01

Row | Sequence | switch fluorescence ratio
47 | CGTAGAGCAT | 1
48 | CATTCGTGGA | 1.02
49 | GTATATGCCG | 1.11
50 | CCTTGTCTTG | 1.03
51 | TATGCAGCGC | 1.03
52 | ATCACTGAAT | 1.01
53 | TGTAGGGCAA | 0.987
54 | GAACAAGGGT | 0.922
55 | GCTGAGTCGG | 1
56 | GCCACTGAAG | 1.01
57 | AACGTGTGA | 1
58 | AGATCTGTCC | 1.05
59 | TTATCATGGT | 1.01
60 | TCAGGCGATG | 0.995
61 | AATCTATCCG | 0.948
62 | CAACCCCTCT | 1.05
63 | GACTAAACGT | 1.46
64 | CCGTTTAATA | 1.25
65 | TTTGTTGTTC | 0.989
66 | CGTAGCGTCG | 1.03
67 | CATATTTTAA | 0.975
68 | ACGACGGGTC | 1.16
69 | CTCGTTTTGT | 1.03

Row | Sequence | switch fluorescence ratio
70 | TTGAATACAT | 1.04
71 | GAGAGTGAAA | 1.03
72 | TTTCTTACT | 0.958
73 | AGTTACAATT | 0.961
74 | CAAGCTTACA | 1.05
75 | CCAGCTTTC | 1.33
76 | TACCCTTGTG | 1.03
77 | GCATTGATGG | 1.01
78 | TCTGAGGTAA | 1.55
79 | CCGTCTGATT | 0.96
80 | AGTATTGAA | 1.01
81 | TTTGGAGAAC | 1.02
82 | TTCTCCAAAT | 1.34
83 | TTCTGACGCT | 1.49
84 | CGATTAGACT | 1.01
85 | CTGAGTGGAA | 0.997
86 | TTCATACAGG | 1.04
87 | TGGATTAGGA | 0.936
88 | TATTTAGCAG | 1.07
89 | AGGGTCTAAC | 0.991
90 | GCCGTCTGGA | 1.03
91 | CCAGTACTGG | 0.971
92 | ATGCTAGAG | 0.958

Row | Sequence | switch fluorescence ratio
93 | CCACTAACAC | 1.34
94 | AAGCGGAATA | 1.05
95 | TAGCATACGA | 2.98
96 | GAGACCAATG | 0.939
97 | TCAGTAGAAG | 1.02
98 | AGCCGTTCCT | 1.04
99 | TGGGTGCCAG | 0.962
100 | ATCGAGTGGG | 0.988
101 | CAAACACACG | 1.31
102 | TAGGGTTTGA | 0.998
103 | ATTGTCTATG | 0.964
104 | TGGGATGAGG | 0.956
105 | AGCCATCGCG | 1.01
106 | AATTGCACTG | 0.956
107 | TTTGGGCGGA | 1.04
108 | CGTCGTCAGA | 1
109 | GTCATCCGAG | 1.29
110 | AATGCAACTC | 1.1
111 | ACTGTAGATG | 1.15
112 | TGTGTTTACA | 1.05
113 | CCAACGTTAC | 1.77
114 | TTGCTATGAG | 1.01
115 | ATAAATTGGT | 0.921

Row | Sequence | switch fluorescence ratio
116 | GGATAAAGTA | 1.08
117 | CAAGCCATAT | 1.05
118 | TGTGTGCGGG | 1.02
119 | GCGATTGGCG | 0.982
120 | AATTTTACCT | 1.26
121 | GATATGGTAT | 0.986
122 | CGAAAGTCGT | 1.01
123 | GGTTTCGATT | 0.976
124 | GAGGGTTGAG | 0.986
125 | CTTAGCATTC | 2.24
126 | TAAGCTATAT | 1.23
127 | GTATCGGGTG | 1.07
128 | CTTAACATAG | 0.984
129 | CACGTCCACC | 1.44
130 | TTTTCGACAC | 1.06
131 | TGTGGCCGGT | 0.993
132 | ACTTTTCCGG | 1.05
133 | ACCGGGGCTG | 1.01
134 | GGTGATCATG | 0.99
135 | TTGTGAAAGC | 1.03
136 | GGAGATGAAA | 0.99
137 | AGGTGCCCCG | 1
138 | TTGGTCAGCT | 0.987

Row | Sequence | switch fluorescence ratio
139 | TGGTGGATG | 1.04
140 | GGGCTTCGAG | 0.965
141 | TCCCAATTTG | 0.992
142 | CGGTCCCGGG | 0.982
143 | CGGTCGGCTG | 1.03
144 | GCGCGTGGG | 1.03
145 | CATGGTAGCA | 1.02
146 | GGGTGCAAAT | 0.968
147 | AGGATGACGT | 0.924
148 | TGGGGGACAA | 0.955
149 | CGTTACTT | 1.01
150 | TTGATCGGT | 1.04
151 | ATCGCGAGCG | 0.994
152 | TGTACGTATA | 1.09
153 | TCAATTGCTA | 0.995
154 | ACATCACAG | 1.42
155 | GAGGGGAATG | 0.994
156 | ATGTCTTAGG | 1.01
157 | TAGCCGACTG | 1.05
